In article PMC4336329 (PLoS ONE, 2015):
Screen size: about 310,000 compounds; about 2,200 (0.71%) showed an effect of 50% or more. The effect is printed as a negative number. Some of the results follow.

These compounds were tested against human ether-à-go-go-related gene (hERG) potassium channel (human, UniProt Q12809) (assay: primary screen, population patch clamp on CHO cells stably expressing hERG).
Chain of human ether-à-go-go-related gene (hERG) potassium channel (Q12809 whole entry, looked up): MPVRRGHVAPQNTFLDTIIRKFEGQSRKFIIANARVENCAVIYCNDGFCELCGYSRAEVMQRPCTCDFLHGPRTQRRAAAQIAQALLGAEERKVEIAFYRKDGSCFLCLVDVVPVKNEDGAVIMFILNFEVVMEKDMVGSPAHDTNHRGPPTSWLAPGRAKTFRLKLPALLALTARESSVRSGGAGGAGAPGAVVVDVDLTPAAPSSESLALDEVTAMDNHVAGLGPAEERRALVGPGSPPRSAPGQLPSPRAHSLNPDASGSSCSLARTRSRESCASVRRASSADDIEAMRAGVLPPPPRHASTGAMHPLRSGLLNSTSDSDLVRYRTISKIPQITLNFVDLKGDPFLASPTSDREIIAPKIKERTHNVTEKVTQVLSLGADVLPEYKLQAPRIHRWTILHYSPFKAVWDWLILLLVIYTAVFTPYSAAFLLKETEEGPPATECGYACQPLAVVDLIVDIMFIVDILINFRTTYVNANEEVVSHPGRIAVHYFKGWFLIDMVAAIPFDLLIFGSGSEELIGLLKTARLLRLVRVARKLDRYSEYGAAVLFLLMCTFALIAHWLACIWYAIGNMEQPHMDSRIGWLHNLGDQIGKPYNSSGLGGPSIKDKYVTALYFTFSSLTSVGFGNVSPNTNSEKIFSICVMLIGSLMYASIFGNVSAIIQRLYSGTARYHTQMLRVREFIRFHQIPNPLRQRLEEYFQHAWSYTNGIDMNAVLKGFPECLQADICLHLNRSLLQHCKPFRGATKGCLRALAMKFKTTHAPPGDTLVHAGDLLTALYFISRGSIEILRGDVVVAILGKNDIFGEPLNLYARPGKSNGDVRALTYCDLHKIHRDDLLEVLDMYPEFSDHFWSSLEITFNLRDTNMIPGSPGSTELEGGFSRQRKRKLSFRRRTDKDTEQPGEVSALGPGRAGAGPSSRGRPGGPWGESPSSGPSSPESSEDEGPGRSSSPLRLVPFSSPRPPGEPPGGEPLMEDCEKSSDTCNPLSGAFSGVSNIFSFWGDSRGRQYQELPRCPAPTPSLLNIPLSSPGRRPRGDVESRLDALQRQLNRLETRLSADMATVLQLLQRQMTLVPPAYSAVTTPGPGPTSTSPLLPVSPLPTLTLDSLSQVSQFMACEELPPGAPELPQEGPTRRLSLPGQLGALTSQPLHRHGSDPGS

| Compound | hERG current change (%, negative = inhibition) at 1uM |
| --- | --- |
| CC(C)(CSc1nncn1/N=C/c1ccco1)NS(=O)(=O)c1ccc(Cl)cc1 | -15.5% |
| Cn1ccnc1C(=O)C1CCCN(Cc2cn[nH]c2-c2ccc(-c3ccccc3)cc2)C1 (stereo not shown) | -2.02% |
| COCCNC(=O)/C=C/c1c(Cl)cccc1Cl | 10.1% |
| COC(=O)c1ccc2c(c1)sc(=NC(=O)CCS(=O)(=O)c1ccccc1)n2C | -12.3% |
| O=C(COc1ccc([N+](=O)[O-])cc1)N1CCN(c2nnc(-c3ccccc3)c3ccccc23)CC1 | -22.8% |
| C=C(C)CNc1cc(S(=O)(=O)N2CCOCC2)ccc1Oc1ccccc1 | 9.91% |
| CC(=O)Nc1ccc(S(=O)(=O)Nc2c(C)n(C)n(-c3ccccc3)c2=O)cc1 | 4.11% |
| Cc1cc(C)cc(-n2c(C)cc(/C=C3\C(=N)N4N=C(CC(C)C)SC4=NC3=O)c2C)c1 | 8.06% |
| C=CCN1C(=O)c2ccc(C(=O)N(CC)CC(=O)Nc3cc(Cl)ccc3C)cc2C1=O | 1.92% |
| O=C(CN=C1NC(=O)C(c2ccccc2)(c2ccccc2)N1)NCc1ccc(F)cc1 | 5.22% |
| CCOC(=O)CSc1nnc2cc(C)c3ccccc3n12 | -4.33% |
| COc1ccc(N2CCN(C(CNC(=O)C3CCCCC3)c3ccco3)CC2)cc1 (stereo not shown) | 14.7% |
| CCn1c(CN2CCOCC2)nnc1SCC(=O)Nc1ccccc1Cl | 18.9% |
| N#Cc1c(Nc2ccccc2)c(C=O)c[nH]c1=O | 12.3% |
| CNC(=O)c1cc2c(=O)n3cc(C)ccc3nc2n(C(C)C)c1=N | -81.9% |
| CN(Cc1ccccc1)S(=O)(=O)c1cccs1 | 4.87% |
| Cc1sc2c(=O)n3c(nc2c1C(=O)NCCCN1CCOCC1)CCCCC3 | -7.25% |
| CCOC(=O)c1sc(-c2ccccc2)cc1NC(=O)CSc1nnnn1C | 10.1% |
| COc1ccc(C2=C(Nc3ccccc3)c3ccccc3C2=O)cc1 | 0.527% |
| Cc1oc(-c2ccccc2Cl)nc1Cn1cccc1C1=NC(c2ccccc2)CO1 (stereo not shown) | 9.14% |
| Cc1nc(NCCN2CCOCC2)c2nnn(Cc3ccccc3Cl)c2n1 | -4.81% |
| O=C(Nc1ccccc1F)C1CCCC1 | 9.67% |

| Compound | hERG current change (%, negative = inhibition) at 1uM |
| --- | --- |
| Cc1cc(Oc2ccc(=O)n(C)n2)nc(Oc2ccc(=O)[nH]n2)n1 | 5.36% |
| COc1cccc(CNCCNC(=O)c2nonc2N)c1.Cl | 12.3% |
| CNC(=S)N1CCc2cc(OC)c(OC)cc2C1COc1ccc(F)cc1 (stereo not shown) | -1.01% |
| CCOc1ncccc1C(=O)OCc1ccc(C#N)cc1 | 1.85% |
| Cc1ccc(-c2c[n+](CC(=O)N3c4ccccc4Sc4ccccc43)c3n2CCC3)cc1.[Cl-] | 4.24% |
| CN(C)/C=C/C(=O)c1ccc(C(F)(F)F)cc1F | 1.32% |
| Cn1cc(Cl)c(C(=O)NC2CCCCCC2)n1 | 9.2% |
| CCN1CCN(C(=O)Nc2cc(Cl)ccc2OC)CC1 | 8.62% |
| O=C(Nc1ccc(Cl)cc1Cl)c1ccc2c(c1)OCCO2 | -2.28% |
| CCC(=O)c1ccc(OC(C)C(=O)NC2(C#N)CCCCC2)cc1 (stereo not shown) | 29% |
| COc1ccc(NS(=O)(=O)c2ccc3[nH]c(=O)[nH]c3c2)cc1 | 12.6% |
| CC(=O)N1CC(C)Sc2ccc(S(=O)(=O)NC3CCCCC3C)cc21 (stereo not shown) | 1.42% |
| O=C1CSCN1c1ccc(Cl)c(Cl)c1 | 4.57% |
| CSCC(O)Cn1[nH]c(=O)c2cc(Cl)c(Cl)cc2c1=O (stereo not shown) | 2.31% |
| O=C(O)c1cc(S(=O)(=O)NCc2ccco2)c(Cl)cc1Cl | 8.86% |
| Cc1cc(Cl)c(S(=O)(=O)N2CCSCC2)cc1OCC(N)=O | 2.36% |
| NC(=O)C1(N2CCCCC2)CCN(S(=O)(=O)c2cc(Cl)ccc2Cl)CC1 | 6.2% |
| O=C(Cn1nc(-c2ccccc2)ccc1=O)NCC1COCCO1 (stereo not shown) | 5.37% |
| CN(C)c1nc2c(N)ncnc2n1[C@H]1O[C@@H](CO)[C@H](O)[C@@H]1O | 6.27% |
| COc1cnc(-c2ccccn2)nc1Sc1ccccc1 | 10.5% |
| Cc1cc(N2CCCC2)nc2ccc(NC(=S)NCCCOC(C)C)cc12 | -78.6% |
| O=C(/C=C/c1ccc(Br)o1)NC(c1ccccc1)c1ccccc1 | 7.16% |

| Compound | hERG current change (%, negative = inhibition) at 1uM |
| --- | --- |
| C=CCSc1nc2ccccc2c2nc(-c3ccccc3)nn12 | 14.5% |
| CC1=C(C(=O)OCc2ccc3c(c2)OCO3)C(c2ccc(F)cc2)NC(=O)N1 (stereo not shown) | 2.75% |
| COc1cccc(N2CCN(CC(=O)Nc3ccc(S(=O)(=O)N4CCCCCC4)cc3)CC2)c1 | -13.2% |
| COc1ccc(NC(=O)Cn2c(=O)oc3cc(Cl)ccc32)c(OC)c1 | 13.5% |
| O=C(c1ccc(Cl)cc1)N1CCN(C(=O)C2CCCCC2)CC1 | 2.56% |
| CCC(Oc1ccc(C)cc1)C(=O)Nc1ccccc1C(=O)N1CCOCC1 (stereo not shown) | 15.5% |
| COc1ccc(N2CCN(c3oc(-c4ccccc4OC)nc3C#N)CC2)cc1 | -2.55% |
| COC(=O)c1sc(NC(=O)c2cc(C)on2)nc1C | 5.24% |
| COc1cc(C)ccc1OCC(=O)Nc1ccccc1N1CCOCC1 | 0.515% |
| O=C(/C=C/c1ccccc1)NCCOc1ccccc1 | 15.6% |
| Cc1cccc(NC(=O)c2nc[nH]c2C(=O)N(C)Cc2ccccc2)c1 | 13.8% |
| Cc1ccc(S(=O)(=O)N2CCC(C(=O)OCCOc3cccc(C)c3)CC2)cc1 | 14.9% |
| O=C1C2C(c3cccc(/C=C/c4ccccc4)c3)CC=CC2C(c2ccc3ccccc3c2)N1Cc1ccccc1 (stereo not shown) | 11% |
| Cc1cccnc1N(C(=O)Nc1cccc(Cl)c1)C1=NCC(C)(C)S1 | 12.9% |
| CCN1CCCC1CNC(=O)C1CCN(C(=O)c2cc3sccc3n2Cc2ccc(F)cc2)CC1 (stereo not shown) | -6.87% |
| CC(C)COc1ccc(N)cc1OCC(C)C.Cl | 5.7% |
| O=C(c1cccc(C(=O)N(c2ccccn2)C2CCCCC2)c1)N(c1ccccn1)C1CCCCC1 | 12.7% |
| CCCCOc1ccc(C2=CSC3=NCCN23)cc1[N+](=O)[O-] | -52.1% |
| O=C(NCCCN1CCCCC1)c1ccc2c(c1)NC(=O)c1ccccc1S2 | 14.1% |
| COc1ccc(CN2CCC(Oc3ccc(C(=O)NCc4ccccn4)cc3)CC2)c(F)c1 | 7.46% |
| CCOc1ccc(N2C(=O)CC(SC(=NC)Nc3cccc(OC)c3)C2=O)cc1 (stereo not shown) | 15.1% |
| CC1(C)OC2CCN3C(C(O)COS3(=O)=O)C2O1 (stereo not shown) | 8.56% |

| Compound | hERG current change (%, negative = inhibition) at 1uM |
| --- | --- |
| CCOc1ncccc1C(=O)N(CC)CC(=O)Nc1ccc(NC(C)=O)cc1 | 8.01% |
| Cc1sc(NC(=O)c2cccs2)c(C(N)=O)c1C | 6.89% |
| O=C(O)C(=O)O.O=C(c1ccco1)N1CCN(CC(=O)N2c3ccccc3CCc3ccccc32)CC1 | 7.52% |
| COc1ccc(C(=O)Nc2ccc(OCC(=O)N3CCOCC3)cc2)c(OC)c1OC | 1.46% |
| CCC(C)NC(=O)C1CCC(CNS(=O)(=O)c2ccc3c(c2)CC(C)N3C(=O)C2CC2)CC1 (stereo not shown) | 4.36% |
| O=C(O)Cc1csc(NC(=O)c2ccco2)n1 | 13.5% |
| CCCCNC(=O)N1CCCC(N(C)CCc2ccc(OC)c(OC)c2)C1 (stereo not shown) | -49.5% |
| COc1ccccc1-c1nc(C#N)c(NCCCn2ccnc2)o1 | 4.34% |
| CCNC(=O)NC(=O)COC(=O)CNC(=O)COc1ccccc1 | 14.5% |
| S=C1NCN(CCc2ccccc2)CN1 | 1.62% |
| O=C(NC(CSSCC(NC(=O)c1ccccc1)C(=O)O)C(=O)O)c1ccccc1 (stereo not shown) | -2.42% |
| CCCCn1c(SCC(=O)Nc2cc(C)on2)nnc1-c1ccco1 | -7.9% |
| O=C(O)CNC(=O)/C(=C/c1cccc([N+](=O)[O-])c1)NC(=O)c1ccco1 | -1.22% |
| O=C(COc1cccc(NC(=O)c2cccc([N+](=O)[O-])c2)c1)c1ccc(F)cc1 | 6.89% |
| CCOc1cccc(C(=O)NC(=S)Nc2ccc(N3CCCC3)cc2)c1 | 4.99% |
| CC(=O)n1cc([C@@H]2C=C(C(=O)N3CCOCC3)O[C@H](OCc3ccc(CO)cc3)C2)c2ccccc21 | -38.1% |
| C=CCn1c(CCCNC(=O)c2ccccc2OC)nc2ccccc21 | -6.76% |
| O=C1c2ccccc2C(=O)N1CN(C(=O)c1ccccc1[N+](=O)[O-])c1ccc(F)cc1 | 0.23% |
| COc1ccc(C/C(C)=N/NC(=O)c2ccncc2)cc1 | -0.715% |
| COc1ccc(C2=CSC3=NNC4(CCCCC4)NN23)cc1 | 5.97% |
| CCOc1ccccc1Nc1nnc(SCC(=O)NC(=O)c2cccn2C)s1 | 7.68% |
| CCCc1ccc(/C=C2\C(=O)c3ccccc3C(O)=C2C(=O)OCC)cc1 | 7.35% |
